Data from US20260001928A1 (CORTERIA PHARMACEUTICALS, priority 2022, published 2026).
For at least one compound, name, drawing or mass did not settle the structure. *1 amine or outer side, *2 acyl side, *3 side chain or, on linkers, in order; H or OH if unused. Where a SMILES comes first, the peptide text is derived from it. Side-chain parts run from the residue outwards. [ ]: non-standard residue; d: D form. The star is where a group is joined. C20 diacid = O=C(O)CCCCCCCCCCCCCCCCCCC(=O)*; C18 diacid = O=C(O)CCCCCCCCCCCCCCCCC(=O)*; γGlu = O=C(O)[C@H](CCC(=O)[*:2])N[*:1]; C14 diacid = O=C(O)CCCCCCCCCCCCC(=O)*; Thp = NC1(C(=O)O)CCOCC1; AEEA = NCCOCCOCC(=O)O; Aib = CC(C)(N)C(=O)O

Columns and labels:
human CRF2a receptor = biological target: T1, human CRF2a receptor (Homo sapiens, UniProt Q13324); experiment: Activity at human CRF2a receptor, cAMP functional assay in TeloHEAC cells; type: cell-based; conditions: TeloHEAC cells stably expressing human CRF2a receptor, relative to urocortin 2 (100 nM = 100%)
T1 construct: expressed in transfected cells; host or cells: TeloHEAC cells
T1 sequence (Q13324 1-411): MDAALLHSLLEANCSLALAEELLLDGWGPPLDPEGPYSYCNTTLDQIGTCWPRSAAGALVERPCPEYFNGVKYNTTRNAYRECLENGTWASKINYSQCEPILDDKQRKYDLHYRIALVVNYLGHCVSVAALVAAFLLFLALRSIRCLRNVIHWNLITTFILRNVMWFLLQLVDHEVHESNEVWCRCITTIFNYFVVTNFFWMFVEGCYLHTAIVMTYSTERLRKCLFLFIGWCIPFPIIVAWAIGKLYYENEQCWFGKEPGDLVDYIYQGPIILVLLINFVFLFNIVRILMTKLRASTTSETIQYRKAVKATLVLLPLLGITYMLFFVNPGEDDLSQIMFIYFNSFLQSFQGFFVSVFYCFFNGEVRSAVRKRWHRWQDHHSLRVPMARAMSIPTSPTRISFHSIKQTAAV
Experimental: Agonism of compounds for human corticotropin-releasing factor 2a (CRF2a receptor) was determined by a functional assay measuring cAMP modulation upon treatment of TeloHEAC cells stably expressing human CRF2a receptor. Compounds were dissolved at 0.5 mM in 100% DMSO and serially diluted (1:2) in 100% DMSO for 16 dilutions. 20 nL of each dilution was then transferred to 384-well assay plate using an acoustic droplet ejection instrument. 5 μL of compound buffer (1×HBSS; 20 mM HEPES,) were then added to each well. Prior to use, frozen cells were thawed quickly at 37° C. and washed (5 min at 900 rpm) with 20 mL cell buffer (1×HBSS; 20 mM HEPES). Cells were resuspended in cell buffer added with 2 mM IBMX and adjusted to a cell density of […]. 5 μL cells (final dell density: 10000 cells/well) were dispensed in the compound-containing 384-well assay plate and incubated for 30 minutes 37° C. The cAMP level in treated cells was determined using the Cisbio 62AM4PEC kit according to manufacturer's instruction. Finally, plates were incubated for 1 h at room temperature before measuring the fluorescence ratio between 665/620 nm. The percent activity value (E %) was calculated by setting 100 nM of urocortin 2 (UCN2) as 100%. The in vitro potency of the compounds was quantified by determining the concentrations that caused 50% activation of maximal response (EC50) relative to urocortin 2.

CFR1R receptor = biological target: T2, CFR1R receptor (Homo sapiens, UniProt P34998); experiment: Activity at anti-target CFR1R receptor, cAMP assay in CRF1R-overexpression CHO-K1 cells; type: cell-based; conditions: 100% = Sauvagine at 100 nM
T2 construct: host or cells: CHO-K1 (clone 2)
T2 sequence (P34998 24-415): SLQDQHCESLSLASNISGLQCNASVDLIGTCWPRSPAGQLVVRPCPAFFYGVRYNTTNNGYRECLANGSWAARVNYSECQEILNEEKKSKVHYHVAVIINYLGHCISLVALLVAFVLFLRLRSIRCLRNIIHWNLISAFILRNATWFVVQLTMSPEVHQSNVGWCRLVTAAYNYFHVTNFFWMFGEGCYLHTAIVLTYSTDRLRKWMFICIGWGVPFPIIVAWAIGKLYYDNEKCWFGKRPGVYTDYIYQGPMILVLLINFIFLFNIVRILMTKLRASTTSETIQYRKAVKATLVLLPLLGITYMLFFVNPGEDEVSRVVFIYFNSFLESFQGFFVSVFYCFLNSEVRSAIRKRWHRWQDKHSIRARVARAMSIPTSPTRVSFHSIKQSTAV
Experimental: Assessment of activity at anti-target CFR1R receptor is done using the same procedure as the one described for the TeloHEAC cell line. The CRF1R-overexpression CHO-K1 cell line clone 2 was purchased from PerkinElmer. Cells were grown in a 10 cm dish at 37° C./5% CO2 in medium (F12 (Hams)/10% FBS/400 μg/ml G418) to near confluence. At that stage, cells were harvested, resuspended to 10 million/mL in culture medium without G418 and with 10% DMSO. 1 mL vial aliquots were slowly frozen to −80° C. in isopropanol and then transferred in liquid nitrogen for storage. These vials were used to run the experiment following the procedure reported in the previous paragraph, except for the compound used in the control well to define the 100% activation (Sauvagine at 100 nM) and the cell density (final cell density: 4000 cells/well)

EC50 (human CRF2a receptor) | EC50 (CFR1R receptor) | SMILES
0.0162 µM | > 0.25 µM | CC[C@H](C)[C@H](NC(C)=O)C(=O)N[C@H](C(=O)N[C@@H](CC(C)C)C(=O)N[C@@H](CO)C(=O)N[C@@H](CC(C)C)C(=O)N[C@@H](CC(=O)O)C(=O)N[C@@H](C(=O)N1CCC[C@H]1C(=O)N[C@H](C(=O)N[C@@H](CCCCN)C(=O)N[C@@H](CC(C)C)C(=O)N[C@@H](CCCCNC(=O)COCCOCCNC(=O)COCCOCCNC(=O)CC[C@H](NC(=O)CC[C@H](NC(=O)CCCCCCCCCCCCC(=O)O)C(=O)O)C(=O)O)C(=O)N[C@@H](CCCCN)C(=O)N[C@H](C(=O)N[C@@H](CC(C)C)C(=O)N[C@@H](CC(C)C)C(=O)N[C@@H](CCC(=O)O)C(=O)N[C@@H](CCC(N)=O)C(=O)N[C@@H](CCC(=O)O)C(=O)N[C@@H](CCCCN)C(=O)N[C@@H](CCC(N)=O)C(=O)N[C@@H](CCCCN)C(=O)N[C@@H](CCCCN)C(=O)N[C@@H](CCC(N)=O)C(=O)N[C@@H](CCCNC(=N)N)C(=O)N[C@@H](CCC(=O)O)C(=O)N[C@@H](CCC(N)=O)C(=O)N[C@@H](C)C(=O)N[C@@H](CCC(=O)O)C(=O)N[C@H](C(=O)N[C@@H](CC(N)=O)C(=O)NC(C)(C)C(=O)N[C@@H](CCC(N)=O)C(=O)N[C@H](C(=O)N[C@@H](CC(C)C)C(=O)N[C@@H](C)C(=O)N[C@@H](CCC(N)=O)C(=O)N[C@H](C(N)=O)C(C)C)[C@@H](C)CC)[C@@H](C)O)[C@@H](C)CC)[C@@H](C)CC)C(C)C)C(C)C [compound 174] (Ac-IVLSLD[dV]PIKLK([AEEA-AEEA-γGlu-γGlu-C14 diacid])KILLEQEKQKKQREQAETN[Aib]QILAQV-NH2)
0.0017 µM | > 0.25 µM | CC[C@H](C)[C@H](NC(C)=O)C(=O)N[C@H](C(=O)N[C@@H](CC(C)C)C(=O)N[C@@H](CO)C(=O)N[C@@H](CC(C)C)C(=O)N[C@@H](CC(=O)O)C(=O)N[C@@H](C(=O)N1CCC[C@H]1C(=O)N[C@H](C(=O)N[C@@H](CCCCN)C(=O)N[C@@H](CC(C)C)C(=O)N[C@@H](CCCCNC(=O)COCCOCCNC(=O)COCCOCCNC(=O)CC[C@H](NC(=O)CCCCCCCCCCCCCCCCC(=O)O)C(=O)O)C(=O)N[C@@H](CCCCN)C(=O)N[C@H](C(=O)N[C@@H](CC(C)C)C(=O)N[C@@H](CC(C)C)C(=O)N[C@@H](CCC(=O)O)C(=O)N[C@@H](CCC(N)=O)C(=O)N[C@@H](CCC(=O)O)C(=O)N[C@@H](CCCCN)C(=O)N[C@@H](CCC(N)=O)C(=O)N[C@@H](CCCCN)C(=O)N[C@@H](CCCCN)C(=O)N[C@@H](CCC(N)=O)C(=O)N[C@@H](CCCNC(=N)N)C(=O)N[C@@H](CCC(=O)O)C(=O)N[C@@H](CCC(N)=O)C(=O)N[C@@H](C)C(=O)N[C@@H](CCC(=O)O)C(=O)N[C@H](C(=O)N[C@@H](CC(N)=O)C(=O)NC1(C(=O)N[C@@H](CCC(N)=O)C(=O)N[C@H](C(=O)N[C@@H](CC(C)C)C(=O)N[C@@H](C)C(=O)N[C@@H](CCC(N)=O)C(=O)N[C@H](C(N)=O)C(C)C)[C@@H](C)CC)CCOCC1)[C@@H](C)O)[C@@H](C)CC)[C@@H](C)CC)C(C)C)C(C)C [compound 198] (Ac-IVLSLD[dV]PIKLK([AEEA-AEEA-γGlu-C18 diacid])KILLEQEKQKKQREQAETN[Thp]QILAQV-NH2)
0.00021 µM | > 0.25 µM | CC[C@H](C)[C@H](NC(C)=O)C(=O)N[C@H](C(=O)N[C@@H](CC(C)C)C(=O)N[C@@H](CO)C(=O)N[C@@H](CC(C)C)C(=O)N[C@@H](CC(=O)O)C(=O)N[C@@H](C(=O)N1CCC[C@H]1C(=O)N[C@H](C(=O)N[C@@H](CCCCN)C(=O)N[C@@H](CC(C)C)C(=O)N[C@@H](CCCCNC(=O)CC[C@H](NC(=O)CCCCCCCCCCCCCCCCCCC(=O)O)C(=O)O)C(=O)N[C@@H](CCCCN)C(=O)N[C@H](C(=O)N[C@@H](CC(C)C)C(=O)N[C@@H](CC(C)C)C(=O)N[C@@H](CCC(=O)O)C(=O)N[C@@H](CCC(N)=O)C(=O)N[C@@H](CCC(=O)O)C(=O)N[C@@H](CCCCN)C(=O)N[C@@H](CCC(N)=O)C(=O)N[C@@H](CCCCN)C(=O)N[C@@H](CCCCN)C(=O)N[C@@H](CCC(N)=O)C(=O)N[C@@H](CCCNC(=N)N)C(=O)N[C@@H](CCC(=O)O)C(=O)N[C@@H](CCC(N)=O)C(=O)N[C@@H](C)C(=O)N[C@@H](CCC(=O)O)C(=O)N[C@H](C(=O)N[C@@H](CC(N)=O)C(=O)NC1(C(=O)N[C@@H](CCC(N)=O)C(=O)N[C@H](C(=O)N[C@@H](CC(C)C)C(=O)N[C@@H](C)C(=O)N[C@@H](CCC(N)=O)C(=O)N[C@H](C(N)=O)C(C)C)[C@@H](C)CC)CCOCC1)[C@@H](C)O)[C@@H](C)CC)[C@@H](C)CC)C(C)C)C(C)C [compound 210] (Ac-IVLSLD[dV]PIKLK([γGlu-C20 diacid])KILLEQEKQKKQREQAETN[Thp]QILAQV-NH2)
